# Data: the supplement of paper PMC11417369
# ± gives the standard deviation of the averaged measurements. The list shows a part of the results.
# Test system: PfAP2-LT AP2 domain (GST-tagged)
# Assay: gcPBM binding intensity (ln(normalized median fluorescence intensity)); higher = stronger DNA binding
# Method in brief: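 An Agilent 4 × 180k array of primer-extended double-stranded 36-bp intergenic genomic probes, with negative controls, was incubated for 1 h with GST-tagged P. falciparum DNA-binding domains expressed in E. coli. Alexa488 anti-GST antibody detected bound protein, scanned at 488 nm. Binding intensity is the highest Masliner-normalised natural-log median intensity across replicate spots of either probe orientation.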
row,Sequence,gcPBM binding intensity (ln)
1,TATATATATTATATAGTGCATTGAAGAAGGGGATTT,8.71 ± 0.38
2,GTGTGGTTACAGACACGAACACATTTTTTAAATATT [CACACA_negctrl_site83],8.93 ± 0.47
3,TTTTTTTTTCTGTGAGTGCATGTAATAAAATAAATT [GTGCAC_site9740],8.26 ± 0.4
4,ATATATTTATAATACACATGCAATGATATAATATAT [TGCATGCA_site20],8.78 ± 0.31
5,CATATATACATATATACACACATATATATATATATA [CACACA_site645],9.63 ± 0.34
6,TATTCCTTATTATAATTCTTAAATAAAAAAAAAAAA [TGCATGCA_negctrl_site45],7.83 ± 0.27
7,ATATATAAACTGAAGGGTACAATGAAAAAAGAACTT [XGTACX_site7219],8.98 ± 0.49
8,TAGGATTTTTAGTTTATTGTAACTATTATTTTATTT [CACACA_negctrl_site829],8.74 ± 0.59
9,CCCATTATTGTTGGGGGTACAATTTTGAATATATAT [XGTACX_site2227],8.95 ± 0.042
10,CATATTTGTTGACACACACACATATTTATATAAATA [CACACA_site7648],9.41 ± 0.38
11,TTTATATGTTTAAAATGTACATGTGGTAAAAATTTT [XGTACX_site5907],8.45 ± 0.42
12,GGGAGGATATTACACAGTACCCAGAAAATCTACGGA [XGTACX_site2551],8.74 ± 0.54
13,TTATAATCTTATATATGTACATATATATATTATTAT [XGTACX_site7780],8.85 ± 0.42
14,AAACATGTATTTTATTGTACACATTCATAAATCACA [XGTACX_site1420],8.74 ± 0.38
15,TACATGTATGTAATATGTTTTATTTTTTTCATCTCT [XGTACX_negctrl_site79],8.56 ± 0.49
16,AAATATATGAATAAATGTACGAAATGAATGGATGAA [XGTACX_site7108],8.96 ± 0.42
17,CATTCAAACAAAAAAAGTACTCATCACATAATATAT [XGTACX_site1251],8.84 ± 0.46
18,AAAAAAAAAAAAAAACTTACGATTTTAAAAAGATGG [GTGCAC_negctrl_site291],8.34 ± 0.47
19,GAAATGTACAAATACGTACACACATATATATATATA [CACACA_site1541],9.87 ± 0.14

row,Sequence,gcPBM binding intensity (ln)
1,GCAAAATATTTAAAATAATATATGTGTATATTTTTA [GTGCAC_negctrl_site149],8.41 ± 0.39
2,TTTATATTGTTTTATTGTACATATATATTTATACAT [XGTACX_site6821],9.03 ± 0.43
3,TTAATTAGAAATCATACACACATATATATATATATA [CACACA_site173],9.59 ± 0.19
4,AAAAAAAAAAAAAACACACAAACGCTTTTTTTTTTT [CACACA_site686],8.9 ± 0.38
5,TACACATACACATACACACGCATAGAAACATACGAA [CACACA_site2137],9.48 ± 0.33
6,TATGAAAATGTTCATACACACATAAAAAAAAAAAAA [CACACA_site3236],8.84 ± 0.47
7,ATTTTAAATGTTATGCGTACATATTAATCCTACTTA [XGTACX_site1344],8.8 ± 0.4
8,TGTTTGAATAACAAAAAAAAAAAAAAAATTAAAAAA [CACACA_negctrl_site1332],8.22 ± 0.56
9,TTTTAAAAATCTATATGTACACAATACGTCTATAAA [XGTACX_site5787],8.52 ± 0.41
10,TACATATTTTTATATACACACAATAATTATTATAAA [CACACA_site1659],8.54 ± 0.43
11,TTTTAAATATGCAGATGTACATTATAATGTTTTATT [XGTACX_site2079],8.87 ± 0.47
12,GATATGTACTAATACACACACATATAGATTTATATA [CACACA_site6610],9.35 ± 0.43
13,TATATTTATTATAACACACACATATATATATTATAT [CACACA_site1061],9.1 ± 0.33
14,AAAATAAAAAATATAACACACAATAAATATATATAT [CACACA_site1926],9.11 ± 0.53
15,ATAATCATTTGGATATTCACAATATTTAAAATTAAA [CACACA_negctrl_site909],8.21 ± 0.46
16,GAAAAAAAAAAAAAAAAAAAAAAATTCATTTTTTTT [XGTACX_negctrl_site54],8.12 ± 0.54
17,TTTTAACTTTTATATTGTACGTTGTTTATTTTATTT [XGTACX_site7504],8.99 ± 0.55
18,ATTTCCTGGCTACTGTGTACTGACCTCCAGACTGCT [XGTACX_site2005],9.13 ± 0.59
19,TATACAAAATAACTAGCACACATATGTATAAACATA [CACACA_site9236],9.13 ± 0.38

row,Sequence,gcPBM binding intensity (ln)
1,ATAAATAAAATTAGGTGTACTTTAATTAAAGAAAAT [XGTACX_site3319],8.62 ± 0.42
2,CATAAAAATATTTTCTGTACATATTCATATGACGTT [XGTACX_site3406],8.88 ± 0.49
3,TATACATATATAATATGTACATATATTTTTTTTTAA [XGTACX_site2938],8.45 ± 0.34
4,ATAAATATTGGGTGCACACACATAATATATATATAT [CACACA_site2272],9.59 ± 0.35
5,AGGTTCCCAAAATGCACACCAATGAAATTATTTATT [CACACA_site553],8.82 ± 0.42
6,ATATGTAATAATAAATGTACGAAACATTGAACGATG [XGTACX_site1266],9.14 ± 0.41
7,GAATCATCCAAAATTGCATGCAAGGAAGAAGAAAAA [TGCATGCA_site764],9.13 ± 0.45
8,TTTTTATATATCACGTGTACATATTTATTTTTACTC [XGTACX_site8049],9.04 ± 0.69
9,AAATCACCTTAAGAACGTACAAACAGAAAAAAATTA [XGTACX_site4623],8.87 ± 0.45
10,TTTATTATATTTATATGTACTTATATAATATATGCA [XGTACX_site1906],8.71 ± 0.3
11,CTTATGTGTATAAGTAGTACTAAATTAAAATAATAT [XGTACX_site2681],8.72 ± 0.49
12,TTATAAATATAATATTGTACAAAATTTTAACATGTC [XGTACX_site5259],8.57 ± 0.47
13,CGTATGAAACATATATGTACTTATAAAAATATAACC [XGTACX_site7539],8.89 ± 0.47
14,TCATAATGAAAACAAGCACACATACATAAAATAAAA [CACACA_site9069],9.22 ± 0.49
15,ATATGTATTAAGTGTACACATATAATGTATTTTGTT [CACACA_site4177],8.99 ± 0.43
16,TTATTTACCATCTCTACACACAAAAATTGATGTAGA [CACACA_site2811],8.85 ± 0.4
17,TAAATTATATTATGCACACTTAAAAATATATTTAAC [CACACA_site3512],8.64 ± 0.36
18,ATTCCATAAGTAAACACACAAATGCCAAAATTTTAT [CACACA_site7491],8.96 ± 0.49
